# In all, about 110,000 compounds were measured (“z-score”: median about -0.1, highest 2% from about 2 on). Some of the results follow. Active and inactive are the calls of the source.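 How the source made its calls: active means z-score in the third read window above 3 or below -3; inactive means the rest.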
# Target: Metabotropic glutamate receptor 8 (Rattus norvegicus) (UniProt P70579)
# Experiment: mGluR8 Gi/Go-coupled signaling modulation – cell-based, rat, thallium flux, HTS, primary screen (AID 488969)
# Conditions: HEK293 rat mGluR8, GIRK (G protein-gated inwardly rectifying potassium channel) thallium flux, FluoZin2; at 10 µM; stronger effect = higher value; submaximal glutamate (EC20) added with thallium
# Sequence of UniProt P70579 (P70579 whole entry, looked up): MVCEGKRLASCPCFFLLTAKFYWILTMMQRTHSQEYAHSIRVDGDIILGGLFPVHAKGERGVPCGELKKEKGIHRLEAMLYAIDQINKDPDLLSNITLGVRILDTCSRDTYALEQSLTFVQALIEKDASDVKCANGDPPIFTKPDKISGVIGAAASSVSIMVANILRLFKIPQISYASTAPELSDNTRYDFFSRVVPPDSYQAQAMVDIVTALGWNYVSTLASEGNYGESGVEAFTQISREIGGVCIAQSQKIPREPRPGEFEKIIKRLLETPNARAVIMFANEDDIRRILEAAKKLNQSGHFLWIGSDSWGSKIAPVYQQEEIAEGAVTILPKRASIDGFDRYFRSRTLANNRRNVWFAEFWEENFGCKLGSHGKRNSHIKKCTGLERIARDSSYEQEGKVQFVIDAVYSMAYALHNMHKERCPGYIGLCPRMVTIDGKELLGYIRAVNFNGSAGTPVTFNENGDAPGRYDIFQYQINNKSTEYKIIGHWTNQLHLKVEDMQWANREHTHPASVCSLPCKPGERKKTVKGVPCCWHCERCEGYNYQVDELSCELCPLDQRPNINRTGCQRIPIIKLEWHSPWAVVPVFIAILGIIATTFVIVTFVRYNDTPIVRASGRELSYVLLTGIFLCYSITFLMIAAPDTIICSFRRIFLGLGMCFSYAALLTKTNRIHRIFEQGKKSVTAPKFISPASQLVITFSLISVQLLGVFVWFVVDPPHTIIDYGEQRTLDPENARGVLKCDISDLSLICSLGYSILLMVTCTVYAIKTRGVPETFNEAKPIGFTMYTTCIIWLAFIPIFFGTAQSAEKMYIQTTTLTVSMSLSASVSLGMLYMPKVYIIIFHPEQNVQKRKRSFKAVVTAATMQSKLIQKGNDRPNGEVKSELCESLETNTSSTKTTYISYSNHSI
row,SMILES,z-score
1,O=C(c1ccc(NC2=NC3CS(=O)(=O)CC3S2)cc1)N1CCN(Cc2ccccc2)CC1 (stereo not given),-0.164
2,Nc1nc(-c2ccccc2)cc(C(F)(F)F)n1,-0.0256
3,Oc1ccccc1CN1CCCN(Cc2ccccc2O)C1,-2
4,N#Cc1nc(-c2ccco2)oc1N1CCN(Cc2ccccc2)CC1,-0.995
5,O=C(CSc1nnc(C2CC2)n1-c1ccccc1)NCCc1ccccc1,-0.088
6,COc1ccc2nc(SCC(=O)Nc3ccc4c(c3)CCC4)[nH]c2c1,0.226
7,O=C(C1CCCO1)N1CCc2ccccc21 (stereo not given),0.0175
8,Cc1ccc(S(=O)(=O)NCCC(c2ccc(F)cc2)c2ccco2)cc1 (stereo not given),-0.25
9,O=C(NC(=S)NNS(=O)(=O)c1ccccc1)c1ccc([N+](=O)[O-])cc1,-0.0377
10,Cc1ccc(CSc2sc(C(=O)c3ccccc3)c(N)c2C#N)cc1,-0.0563
11,Cc1ccc(/C(N)=N/OC(=O)N2CCOCC2)cc1,-0.314
12,CCOc1ccc(S(=O)(=O)NCc2ccco2)cc1,-0.0605
13,Cc1nc(NCc2ccccn2)c2ccccc2n1,0.238
14,O=C(O)c1c(F)c(F)cc2ccccc12,0.365
15,CCSc1ncnc2c1sc1nc3c(cc12)COC(C)(C)C3,0.111
16,O=c1c2ccccc2nc(/C=C/c2cccc([N+](=O)[O-])c2)n1CCO,0.0948
17,Cc1c(NCc2cc(Cl)cc(Cl)c2O)c(=O)n(-c2ccccc2)n1C,-0.115
18,O=C(CSc1nnc(Cc2cc(=O)[nH]c(=O)[nH]2)n1-c1ccc(F)cc1)NC1CCCC1,0.00117
19,CCOC(=O)C(C)Sc1nnc(Cc2cc(=O)[nH]c(=O)[nH]2)n1-c1cccc(OC)c1 (stereo not given),0.0951
20,O=C(C1=NN[C@@H]2C(=O)N(c3cccc(F)c3)C(=O)[C@H]12)C(c1ccccc1)c1ccccc1,-0.23
21,c1ccc(SCCOCCN2CCc3ccccc3C2)cc1,0.295
22,Cc1ccc(-n2c(C)nnc2SCC(=O)N2CCc3ccccc3C2)cc1C,-0.57
23,O=C(CCCn1c(=S)[nH]c2cc3c(cc2c1=O)OCO3)N1CCN(c2ccc(Cl)cc2)CC1,-0.36
24,CCC(C)N1CCN(C(=O)c2cccs2)CC1 (stereo not given),0.327
25,S=C(NCCc1ccccc1)Nc1ccc(Br)cc1,0.268
26,COC(=O)c1ccccc1-c1ccc(/C=C2\C(=O)N(c3ccccc3)N=C2c2ccccc2)o1,-0.0357
27,COC(=O)CCC(=O)Nc1cccc(C(=O)Nc2cccc(Cl)c2)c1,0.0914
28,N#Cc1c(-c2ccccc2)nc2n(-c3ccccc3)nc(C(=O)Nc3ccccc3)n2c1=O,-0.39

row,SMILES,z-score
1,COc1cccc(CNc2ccc3c(c2)ncn3C(C)C)c1OC,-1.6
2,CC1CCCN(S(=O)(=O)c2ccccc2[N+](=O)[O-])C1 (stereo not given),0.182
3,CCC1CCCCN1C(=S)NC(=O)c1ccc([N+](=O)[O-])cc1 (stereo not given),active: 9.16
4,O=C(Nc1ccc2c3c(cccc13)CC2)c1ccc(Br)o1,0.0664
5,COc1ccccc1NC(=O)Cn1nnc(-c2ccccc2NS(=O)(=O)c2ccccc2)n1,-0.198
6,CCCOc1ccc(C2/C(=C(\O)c3c(C)[nH]c(C(=O)OC)c3C)C(=O)C(=O)N2CCN(C)C)cc1 (stereo not given),0.491
7,Cc1nc2cc(N3CCCCC3)c(NC(=O)c3ccncc3)cc2c(=O)n1Cc1ccccc1,-0.0957
8,CCOc1ccc(-c2cc(C(=O)NN3CCN(C)CC3)c3cc(Cl)ccc3n2)cc1,-0.0539
9,COCC(=O)Nc1cc([N+](=O)[O-])ccc1C,-0.258
10,CCOC(=O)c1ccc(N2C(=O)C(C)=C(C)C2=O)cc1,0.616
11,O=C(Nc1ccc(Cl)cc1)N(Cc1cccnc1)Cc1ccco1,1.62
12,C(=C\c1ccccc1)/C=N/Nc1nc2ccccc2s1,-0.125
13,Cn1c(N)c(C(=O)COC(=O)C2=COCCO2)c(=O)n(C)c1=O,0.121
14,O=C(NCc1cccs1)c1cc(C2CC2)on1,0.944
15,CN(CC(=O)Nc1ccccc1Oc1ccccc1)Cc1ccccc1F,0.0859
16,OCn1ncn(-c2ccccc2)c1=S,-0.0243
17,CCn1c(SCC(=O)c2ccc(C)cc2)nnc1-c1ccncc1,0.101
18,CCNc1nc(CN2CCCCC2)nc2scc(-c3ccccc3)c12,0.384
19,C(=N\c1nc2ccccc2n1CCN1CCCCC1)/c1ccc2c(c1)OCO2,-0.298
20,Cc1cc(NC(=O)Nc2cccs2)no1,-0.218
21,CC1=C(C(=O)Nc2ccc(C)cc2C)C(c2ccc(C)o2)NC(=O)N1 (stereo not given),-0.12
22,Nc1ncnc2nc(SCc3ccc(Cl)cc3Cl)[nH]c12,0.793
23,Cc1ccc(-c2nnn(CC(=O)N(CC3CCCO3)C(C(=O)NC3CCCC3)c3ccc(F)cc3)n2)o1 (stereo not given),-0.0511
24,O=C(Nc1ccc(Nc2ccccc2)cc1)c1ccco1,-0.294
25,Cc1ncc(CO)c(/C=N/NC(=O)c2ccc(Br)cc2)c1O,0.712
26,COc1ccc(S(=O)(=O)N(Cc2ccc(OC)c(OC)c2)Cc2ccco2)cc1,-0.388
27,Cc1cccc(NC(=O)C2SC(=Nc3c(C)cccc3C)C(C(=O)N3CCOCC3)=C2N)c1 (stereo not given),-0.48
